Screen size: about 270,000 compounds; about 620 (0.23%) were called active. Inconclusive results, whose numbers are uncertain, are shown with a selection of clear calls. The call rests on the fitted dose curve; in most records, active means well fitted inhibition curve with a large enough effect in the polarisation, with a control signal flat (not every such curve was filed as active); inconclusive means small, poorly fitted or top-dose-only effect, or effect the other way, or a change in a side signal; inactive means no such curve, though single readings can be large or run the other way; the % refers to the polarisation. Where the call is inconclusive, the potency comes from a doubtful curve fit. “Side channel” marks fits to a control or component signal instead of the main read-out.
Molecular target: Menin (Homo sapiens) (UniProt O00255)
Assay: qHTS Assay for Inhibitors Targeting the Menin-MLL Interaction in MLL Related Leukemias: Competition With Texas Red Labeled MLL-derived Mutant Peptide; on FP activity change, negative = inhibition: % of control where 0% means no effect
Conditions: fluorescence polarization; FP activity change, negative = inhibition: at 61.6 µM (top of the series)
Potency means the concentration at half of the fitted maximal effect; tags describe the fitted curve by direction and shape or compound fluorescence and quenching.

Sequence of UniProt O00255 (O00255 whole entry, looked up): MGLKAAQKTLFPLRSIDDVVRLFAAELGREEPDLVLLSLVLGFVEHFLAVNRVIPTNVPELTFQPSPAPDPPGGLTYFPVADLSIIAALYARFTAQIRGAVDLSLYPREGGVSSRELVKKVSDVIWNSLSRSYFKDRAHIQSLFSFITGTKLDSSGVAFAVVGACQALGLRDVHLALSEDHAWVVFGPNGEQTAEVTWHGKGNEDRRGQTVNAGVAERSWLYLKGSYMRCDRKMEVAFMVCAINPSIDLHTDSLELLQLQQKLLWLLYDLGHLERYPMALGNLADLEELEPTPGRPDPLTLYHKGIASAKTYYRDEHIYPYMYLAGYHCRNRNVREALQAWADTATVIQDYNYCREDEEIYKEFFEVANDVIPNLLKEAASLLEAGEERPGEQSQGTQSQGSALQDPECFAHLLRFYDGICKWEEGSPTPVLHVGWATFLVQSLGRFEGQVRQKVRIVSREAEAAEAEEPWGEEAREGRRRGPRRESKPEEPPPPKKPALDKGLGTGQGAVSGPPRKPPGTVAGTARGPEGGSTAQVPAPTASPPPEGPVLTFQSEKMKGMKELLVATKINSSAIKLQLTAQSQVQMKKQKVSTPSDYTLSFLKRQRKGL

Compound	Potency	FP activity change, negative = inhibition
CCCc1cc(=O)[nH]c(SCC(=O)Nc2sc3c(c2C#N)CCC(C)C3)n1 (configuration not stated)	inconclusive: 17.8 µM [quencher, side channel, partial curve]	–
Cc1nn(-c2ccc(Cl)cc2)c2[nH]c(CCl)cc(=O)c12	inconclusive: 20 µM [quencher, side channel, single point]	–
CCc1ccc(NC(=O)Cc2c(C(=O)O)n(C)c3ccccc23)cc1	inconclusive: 39.8 µM [quencher, side channel, single point]	–
O=C(Cn1c2[n+](c3ccc(C(F)(F)F)cc31)CCCCC2)Nc1ccccc1	–	inactive: -13.5%
CCn1c2ccccc2c2cc(NC(=O)CN(C)CC(=O)Nc3ccc(N4CCOCC4)cc3)ccc21	inconclusive: 11.2 µM [quencher, side channel, partial curve]	–
COc1cccc(N=Nc2c(N)[nH]n3c(=O)cc(-c4ccccc4)nc23)c1	inconclusive: 10 µM [quencher, side channel, partial curve]	–
CC(=O)c1c2c3c(cccc3n(C)c1=O)C(=O)c1ccccc1-2	–	inactive: -7.59%
CCc1ccc(/C=N/NC(=O)c2ccc(OC3CCCC3)cc2)s1	inconclusive: 25.1 µM [fluorescent, side channel, single point]	–
Cc1cc(NC(=O)CSc2nnc(CNc3cccc(C(F)(F)F)c3)n2Cc2ccco2)no1	inconclusive: 15.8 µM [fluorescent, side channel, partial curve]	–
CCCCn1c(=O)[nH]c(=O)c2c1nc(-c1ccccc1F)n2Cc1ccccc1OC	inconclusive: 3.16 µM [fluorescent, side channel, partial curve]	–
COc1ccc(-c2ccc(C(C)=O)cc2)cc1C1C2C=CCC(C)C2C(=O)N1Cc1ccccc1 (configuration not stated)	–	inactive: -6.77%
COc1cccc(Oc2cn[nH]c2-c2ccc(O)cc2O)c1	inconclusive: 15.8 µM [quencher, side channel, partial curve]	–
CCc1ccc(N(C(=O)Cc2cccs2)C(C(=O)NC2CCCCC2)c2cn(C)nc2C)cc1 (configuration not stated)	inconclusive: 2.82 µM [inhibitor, partial curve]	–
O=C(COc1ccc([N+](=O)[O-])cc1)NNC(=O)c1cccnc1	inconclusive: 10 µM [inhibitor, partial curve]	–
Cc1ccc(O/C=C2\OC(=O)c3ccccc32)cc1	inconclusive: 39.8 µM [inhibitor, single point]	–
COc1ccc(Cl)cc1NC(=O)Nc1ccc(Br)cn1	inconclusive: 3.98 µM [inhibitor, full curve]	–
CCCCC(=O)Nc1cccc(NC(=O)c2ccc(Br)cc2)c1	inconclusive: 39.8 µM [fluorescent, side channel, single point]	–
Oc1ccc(C=Nc2ccccc2-c2nc3ccccc3[nH]2)c(O)c1	inconclusive: 44.7 µM [quencher, side channel, single point]	–
CC1CCc2c(sc(NC(=O)/C=C/c3cccs3)c2C(=O)O)C1 (configuration not stated)	inconclusive: 7.94 µM [quencher, side channel, partial curve]	–

Compound	Potency	FP activity change, negative = inhibition
Cn1c(=O)c2[nH]c(NCC3CCCO3)nc2n(-c2ccccc2)c1=O (configuration not stated)	inconclusive: 22.4 µM [inhibitor, single point]	–
CCN(CC)C(=O)c1nn(-c2ccccc2)c2c1C1CCC2(C)C1(C)C (configuration not stated)	inconclusive: 3.55 µM [fluorescent, side channel, full curve]	–
Cc1nc(N)sc1N=Nc1ccccc1C(F)(F)F	inconclusive: 15.8 µM [quencher, side channel, partial curve]	–
CC(=O)c1c[nH]c(C(=O)NCc2cccc(C(F)(F)F)c2)c1	inconclusive: 3.98 µM [inhibitor, partial curve]	–
CC1(C)C(=O)NC2=C1C(=O)C(=O)c1ccccc12	inconclusive: 8.91 µM [quencher, side channel, full curve]	–
CCC1SC2=NC(C)=C(C(=O)OC)C(c3ccc(C)cc3)N2C1=O (configuration not stated)	inconclusive: 25.1 µM [inhibitor, partial curve]	–
Cc1cc(O)ccc1Nc1nc(-c2sc(N)nc2C)cs1	inconclusive: 25.1 µM [quencher, side channel, single point]	–
O=S(=O)(N/N=C\c1ccc(-c2ccccc2Cl)o1)c1ccccc1	inconclusive: 28.2 µM [quencher, side channel, single point]	–
Cc1cc(-n2c(SCCC#N)nnc2-c2cccnc2)ccc1Cl	inconclusive: 3.55 µM [inhibitor, partial curve]	–
CC1CCN(CCCCOc2cccc(C(C)C)c2)CC1	inconclusive: 39.8 µM [inhibitor, single point]	–
CN(C)/[N+]([O-])=N/Oc1cc(ON=[N+]([O-])N2CCN(c3ncccn3)CC2)c([N+](=O)[O-])cc1[N+](=O)[O-]	inconclusive: 20 µM [quencher, side channel, partial curve]	–
O=[N+]([O-])c1ccc(N/N=C/c2ccc(OCc3cccc4ccccc34)cc2)nc1	inconclusive: 2.82 µM [quencher, side channel, partial curve]	–
Cc1ccc(CCN2CC(C(=O)NCc3ccco3)CC2=O)cc1 (configuration not stated)	inconclusive: 2.82 µM [inhibitor, partial curve]	–
COc1cccc(-c2cc(C(=O)NC3CCCCC3)no2)c1	inconclusive: 31.6 µM [fluorescent, side channel, single point]	–
CCN(CC)C(=O)COC(=O)c1cc(-c2ccco2)nc2ccccc12	–	inactive: 18.2%
Cn1c(NCc2ccco2)nc2c1c(=O)n(Cc1ccc(Cl)cc1)c(=O)n2C	inconclusive: 17.8 µM [quencher, side channel, partial curve]	–
Cc1nc(N/N=C/c2ccc(O)cc2O)cc(N2CCOCC2)n1	inconclusive: 17.8 µM [quencher, side channel, partial curve]	–
O=C(NNc1nc(N2CCOCC2)nc(N2CCOCC2)n1)Nc1ccc(Cl)cc1	inconclusive: 39.8 µM [fluorescent, single point]	–

Source: PubChem BioAssay AID1768 (National Center for Advancing Translational Sciences (NCATS), 2009)
